# Laboratory results published in EP3959993B1, “METHOD FOR SOLVENT FREE PRODUCTION OF AROMA CONCENTRATES” (Symrise AG, priority 2020, dated 2022).
# The name of at least one read-out is uncertain. For at least one compound, name, drawing or mass did not settle the structure.
# Experiment: Second oil phase obtained by adding NaCl to the water phase (Example 4)
# Assay type: physicochemical
# Conditions: for Recovery oil phase I: 0% Salt; for Recovery oil phase II: 83.3% Salt (NaCl, based on theoretical solubility in water)
# Description: Cross linked polystyrene was used as adsorbent material. The volume flux for loading the adsorbent was 300 ml/min.
# The adsorbent was heated to 150 °C, the temperature of the applied water steam was 160 °C.
# The water steam flux was 10 g/min and was applied for 100 min.
# The oil and water phases were separated.
# A second oil phase was separated and was collected.
SMILES,Recovery oil phase I,Recovery oil phase II
CCCCCO [pentanol],"29,5%","55,1%"
CCC/C=C/C=O [trans-2-hexenal],"35,5%","52,0%"
CC/C=C\CCO [cis-3-hexenol],"30,6%","58,6%"
CCCCCCCO [heptanol],"76,2%","23,8%"
CCCCCC=O [hexanal],"100,0%",
CC/C=C/CCO [trans-3-hexenol],"51,8%","45,5%"
CC/C=C\CCOC(C)=O [cis-3-hexenyl acetate],"100,0%","0,0%"
CCCC(CC=O)OCC (centres unmarked) [3-ethoxy-hexanal],"48,4%","50,1%"
CCC/C=C/COC(C)=O [trans-2-hexenyl acetate],"100,0%","0,0%"
CCCC(=O)OCC [ethyl butyrate],"49,4%","49,4%"
CC(=O)OCCc1ccccc1 [phenylethyl acetate],"70,8%","29,2%"
CCOC(C)=O [ethyl acetate],"10,4%","34,9%"
CCC/C=C/CO [trans-2-hexenol],"37,9%","56,1%"
CC(=O)OCC(C)C [2-methylpropyl acetate],"69,3%","29,7%"
CCCCCCO [hexanol],"59,2%","39,0%"
CCCCCCCCO [octanol],"91,3%","8,7%"
CCC(C)COC(C)=O (centres unmarked) [2-methyl butyl acetate],"79,3%","20,6%"
CCCCCCOC(C)=O [hexyl acetate],"93,4%","6,6%"
